# Assay results published in the supplement of paper PMC8728848.
# Some of the results follow.
# B1: Sebin1 (Coprinopsis cinerea), A8PEE3 (protein)
# chain: MTSPFYAHIHNVQDDNTWRFTLIFANRATADEWWRAISEAPANTSIAKSITRVTPQYYTHDVNIWNIWNFFADGNIKSISERFRGRLFIVLENDRGGRGITVIPPVPIVDHVSGNWFYIRSKTAPHLFWYYDERRSSIYASKEKRTRFKISIRNPSSQTPKNAIMINTDDVTIHIKENLYVGVDNNLGHIIPTRAYRTFKFGELESGAIAGFDVVENIEERCSSTFDGASLSISGPDSSSPGEPWELV
# Tests used:
# Experiment in all cases: glycan array binding signal (z-score within array); higher = stronger binding
# Settings in all cases: glycan notation: IUPAC condensed, linker removed
# [1] = target: Gal(b1-4)GalNAc(b1-3)[Fuc(a1-2)]Gal(b1-4)GlcNAc
# Summary of the method: (§1)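 The binding signal is a Z-score computed within each array and averaged over linkers. Arrays of the same protein sequence at different concentrations or buffers were also averaged together. Data originate from 3228 arrays in the Consortium for Functional Glycomics database, kept only where the protein sequence was available.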
# Gal(b1-4)Glc = target: Gal(b1-4)Glc
# Summary of the method: as §1
# Gal(b1-4)Glc6S = target: Gal(b1-4)Glc6S
# Summary of the method: as §1
# Gal(b1-4)GlcNAc = target: Gal(b1-4)GlcNAc
# Summary of the method: as §1
# [2] = target: Gal(b1-4)GlcNAc(a1-6)Gal(b1-4)GlcNAc
# Summary of the method: as §1
# Gal(b1-4)GlcNAc(b1-2)Man = target: Gal(b1-4)GlcNAc(b1-2)Man
# Summary of the method: as §1
# [3] = target: Gal(b1-4)GlcNAc(b1-2)Man(a1-3)Man(b1-4)GlcNAc(b1-4)GlcNAc
# Summary of the method: as §1
# [4] = target: Gal(b1-4)GlcNAc(b1-2)Man(a1-3)[Gal(b1-4)GlcNAc(b1-2)Man(a1-6)]Man(b1-4)GlcNAc(b1-4)GlcNAc
# Summary of the method: as §1
# [5] = target: Gal(b1-4)GlcNAc(b1-2)Man(a1-3)[Gal(b1-4)GlcNAc(b1-2)Man(a1-6)]Man(b1-4)GlcNAc(b1-4)[Fuc(a1-6)]GlcNAc
# Summary of the method: as §1
# [6] = target: Gal(b1-4)GlcNAc(b1-2)Man(a1-3)[Gal(b1-4)GlcNAc(b1-2)Man(a1-6)][Gal(b1-4)GlcNAc(b1-4)]Man(b1-4)GlcNAc(b1-4)[Fuc(a1-6)]GlcNAc
# Summary of the method: as §1
# [7] = target: Gal(b1-4)GlcNAc(b1-2)Man(a1-3)[Gal(b1-4)GlcNAc(b1-2)Man(a1-6)][GlcNAc(b1-4)]Man(b1-4)GlcNAc(b1-4)[Fuc(a1-6)]GlcNAc
# Summary of the method: as §1
# [8] = target: Gal(b1-4)GlcNAc(b1-2)Man(a1-3)[GlcNAc(b1-2)Man(a1-6)]Man(b1-4)GlcNAc(b1-4)GlcNAc
# Summary of the method: as §1
# [9] = target: Gal(b1-4)GlcNAc(b1-2)Man(a1-3)[GlcNAc(b1-4)][Gal(b1-4)GlcNAc(b1-2)Man(a1-6)]Man(b1-4)GlcNAc(b1-4)GlcNAc
# Summary of the method: as §1
# [10] = target: Gal(b1-4)GlcNAc(b1-2)Man(a1-3)[Man(a1-6)]Man(b1-4)GlcNAc(b1-4)GlcNAc
# Summary of the method: as §1
# [11] = target: Gal(b1-4)GlcNAc(b1-2)Man(a1-6)Man(b1-4)GlcNAc(b1-4)GlcNAc
# Summary of the method: as §1
# [12] = target: Gal(b1-4)GlcNAc(b1-2)Man(a1-6)[GlcNAc(b1-2)Man(a1-3)]Man(b1-4)GlcNAc(b1-4)GlcNAc
# Summary of the method: as §1
# [13] = target: Gal(b1-4)GlcNAc(b1-2)Man(a1-6)[Man(a1-3)]Man(b1-4)GlcNAc(b1-4)GlcNAc
# Summary of the method: as §1
# [14] = target: Gal(b1-4)GlcNAc(b1-2)[Gal(b1-4)GlcNAc(b1-4)]Man(a1-3)[Gal(b1-4)GlcNAc(b1-2)Man(a1-6)]Man(b1-4)GlcNAc(b1-4)GlcNAc
# Summary of the method: as §1
# [15] = target: Gal(b1-4)GlcNAc(b1-2)[Gal(b1-4)GlcNAc(b1-4)]Man(a1-3)[Gal(b1-4)GlcNAc(b1-2)[Gal(b1-4)GlcNAc(b1-6)]Man(a1-6)]Man(b1-4)GlcNAc(b1-4)GlcNAc
# Summary of the method: as §1
# [16] = target: Gal(b1-4)GlcNAc(b1-2)[Gal(b1-4)GlcNAc(b1-4)]Man(a1-3)[GlcNAc(b1-4)][Gal(b1-4)GlcNAc(b1-2)Man(a1-6)]Man(b1-4)GlcNAc(b1-4)GlcNAc
# Summary of the method: as §1
# [17] = target: Gal(b1-4)GlcNAc(b1-2)[Gal(b1-4)GlcNAc(b1-4)]Man(a1-3)[GlcNAc(b1-4)][Gal(b1-4)GlcNAc(b1-2)[Gal(b1-4)GlcNAc(b1-6)]Man(a1-6)]Man(b1-4)GlcNAc(b1-4)GlcNAc
# Summary of the method: as §1
# [18] = target: Gal(b1-4)GlcNAc(b1-2)[Gal(b1-4)GlcNAc(b1-6)]Man(a1-6)[Gal(b1-4)GlcNAc(b1-2)Man(a1-3)]Man(b1-4)GlcNAc(b1-4)GlcNAc
# Summary of the method: as §1
# [19] = target: Gal(b1-4)GlcNAc(b1-2)[Gal(b1-4)GlcNAc(b1-6)]Man(a1-6)[Gal(b1-4)GlcNAc(b1-2)Man(a1-3)]Man(b1-4)GlcNAc(b1-4)[Fuc(a1-6)]GlcNAc
# Summary of the method: as §1
# [20] = target: Gal(b1-4)GlcNAc(b1-2)[Gal(b1-4)GlcNAc(b1-6)]Man(a1-6)[GlcNAc(b1-4)][Gal(b1-4)GlcNAc(b1-2)Man(a1-3)]Man(b1-4)GlcNAc(b1-4)GlcNAc
# Summary of the method: as §1
# [21] = target: Gal(b1-4)GlcNAc(b1-2)[Gal(b1-4)GlcNAc(b1-6)]Man(a1-6)[GlcNAc(b1-4)][Gal(b1-4)GlcNAc(b1-2)[Gal(b1-4)GlcNAc(b1-4)]Man(a1-3)]Man(b1-4)GlcNAc(b1-4)[Fuc(a1-6)]GlcNAc
# Summary of the method: as §1
# [22] = target: Gal(b1-4)GlcNAc(b1-3)Gal(b1-3)GalNAc
# Summary of the method: as §1
# [23] = target: Gal(b1-4)GlcNAc(b1-3)Gal(b1-3)GlcNAc
# Summary of the method: as §1
# [24] = target: Gal(b1-4)GlcNAc(b1-3)Gal(b1-4)Glc
# Summary of the method: as §1
# [25] = target: Gal(b1-4)GlcNAc(b1-3)Gal(b1-4)GlcNAc
# Summary of the method: as §1
# [26] = target: Gal(b1-4)GlcNAc(b1-3)Gal(b1-4)GlcNAc(b1-2)Man(a1-3)[Gal(b1-4)GlcNAc(b1-3)Gal(b1-4)GlcNAc(b1-2)Man(a1-6)]Man(b1-4)GlcNAc(b1-4)GlcNAc
# Summary of the method: as §1
# [27] = target: Gal(b1-4)GlcNAc(b1-3)Gal(b1-4)GlcNAc(b1-2)Man(a1-3)[Gal(b1-4)GlcNAc(b1-3)Gal(b1-4)GlcNAc(b1-2)Man(a1-6)]Man(b1-4)GlcNAc(b1-4)[Fuc(a1-6)]GlcNAc
# Summary of the method: as §1
# [28] = target: Gal(b1-4)GlcNAc(b1-3)Gal(b1-4)GlcNAc(b1-2)[Gal(b1-4)GlcNAc(b1-3)Gal(b1-4)GlcNAc(b1-6)]Man(a1-6)[Gal(b1-4)GlcNAc(b1-3)Gal(b1-4)GlcNAc(b1-2)Man(a1-3)]Man(b1-4)GlcNAc(b1-4)GlcNAc
# Summary of the method: as §1
# [29] = target: Gal(b1-4)GlcNAc(b1-3)Gal(b1-4)GlcNAc(b1-2)[Gal(b1-4)GlcNAc(b1-3)Gal(b1-4)GlcNAc(b1-6)]Man(a1-6)[Gal(b1-4)GlcNAc(b1-3)Gal(b1-4)GlcNAc(b1-2)Man(a1-3)]Man(b1-4)GlcNAc(b1-4)[Fuc(a1-6)]GlcNAc
# Summary of the method: as §1
# [30] = target: Gal(b1-4)GlcNAc(b1-3)Gal(b1-4)GlcNAc(b1-3)Gal(b1-4)GlcNAc
# Summary of the method: as §1
# [31] = target: Gal(b1-4)GlcNAc(b1-3)Gal(b1-4)GlcNAc(b1-3)Gal(b1-4)GlcNAc(b1-2)Man(a1-3)[Gal(b1-4)GlcNAc(b1-3)Gal(b1-4)GlcNAc(b1-3)Gal(b1-4)GlcNAc(b1-2)Man(a1-6)]Man(b1-4)GlcNAc(b1-4)GlcNAc
# Summary of the method: as §1
# [32] = target: Gal(b1-4)GlcNAc(b1-3)Gal(b1-4)GlcNAc(b1-3)Gal(b1-4)GlcNAc(b1-2)Man(a1-3)[Gal(b1-4)GlcNAc(b1-3)Gal(b1-4)GlcNAc(b1-3)Gal(b1-4)GlcNAc(b1-2)Man(a1-6)]Man(b1-4)GlcNAc(b1-4)[Fuc(a1-6)]GlcNAc
# Summary of the method: as §1
# [33] = target: Gal(b1-4)GlcNAc(b1-3)Gal(b1-4)GlcNAc(b1-3)Gal(b1-4)GlcNAc(b1-2)[Gal(b1-4)GlcNAc(b1-3)Gal(b1-4)GlcNAc(b1-3)Gal(b1-4)GlcNAc(b1-6)]Man(a1-6)[Gal(b1-4)GlcNAc(b1-3)Gal(b1-4)GlcNAc(b1-3)Gal(b1-4)GlcNAc(b1-2)Man(a1-3)]Man(b1-4)GlcNAc(b1-4)[Fuc(a1-6)]GlcNAc
# Summary of the method: as §1
binder,measurement,setting,value
B1,glycan array binding signal (z-score),[1],-0.358
same,glycan array binding signal (z-score),Gal(b1-4)Glc,-0.68
same,glycan array binding signal (z-score),Gal(b1-4)Glc6S,-0.312
same,glycan array binding signal (z-score),Gal(b1-4)GlcNAc,-0.703
same,glycan array binding signal (z-score),[2],0.011
same,glycan array binding signal (z-score),Gal(b1-4)GlcNAc(b1-2)Man,0.033
same,glycan array binding signal (z-score),[3],-0.09
same,glycan array binding signal (z-score),[4],-0.363
same,glycan array binding signal (z-score),[5],-0.04
same,glycan array binding signal (z-score),[6],0.012
same,glycan array binding signal (z-score),[7],0.164
same,glycan array binding signal (z-score),[8],0.006
same,glycan array binding signal (z-score),[9],0.511
same,glycan array binding signal (z-score),[10],0.357
same,glycan array binding signal (z-score),[11],0.006
same,glycan array binding signal (z-score),[12],-0.684
same,glycan array binding signal (z-score),[13],0.145
same,glycan array binding signal (z-score),[14],-0.168
same,glycan array binding signal (z-score),[15],-0.199
same,glycan array binding signal (z-score),[16],0.136
same,glycan array binding signal (z-score),[17],0.993
same,glycan array binding signal (z-score),[18],0.454
same,glycan array binding signal (z-score),[19],0.018
same,glycan array binding signal (z-score),[20],0.362
same,glycan array binding signal (z-score),[21],0.02
same,glycan array binding signal (z-score),[22],1.23
same,glycan array binding signal (z-score),[23],-0.381
same,glycan array binding signal (z-score),[24],-0.182
same,glycan array binding signal (z-score),[25],-0.364
same,glycan array binding signal (z-score),[26],0.237
same,glycan array binding signal (z-score),[27],0.498
same,glycan array binding signal (z-score),[28],-0.077
same,glycan array binding signal (z-score),[29],1.28
same,glycan array binding signal (z-score),[30],-0.366
same,glycan array binding signal (z-score),[31],0.354
same,glycan array binding signal (z-score),[32],13.4
same,glycan array binding signal (z-score),[33],1.31
